Experimental data taken from the supplement of paper PMC6206098.
± gives the uncertainty stated by the source. The sequences are guide strands of siRNAs; only the seed at positions 2 to 7 varies.

Experiments:
H460 = experiment: cell viability relative to lipid-only control; higher = less toxic; conditions: concentration: 10 nM; 96 h; Homo sapiens
HeyA8 = experiment: as above; conditions: concentration: 10 nM; 96 h; Homo sapiens
M565 = experiment: as above; conditions: concentration: 10 nM; 96 h; Mus musculus
3LL = experiment: cell viability relative to siNT1 control; HeyA8 human ovarian and H460 human lung cancer; M565 mouse liver and 3LL mouse lung cancer; siNT1 is a non-toxic control siRNA; higher = less toxic; conditions: concentration: 10 nM; 96 h; Mus musculus
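Throughout, for cell viability relative to lipid-only control: reverse lipid transfection in 384-well plates, in triplicate, of duplexes on a non-toxic 19mer backbone with passenger strand 2′-O-methylated at positions 1 and 2, luminescence viability read-out.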
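Throughout, for cell viability relative to siNT1 control: Luminescence-based viability of cells reverse transfected in 384-well plates with lipid-complexed siRNAs built on a non-toxic 19mer backbone whose passenger strand carries 2′-O-methyl groups at positions 1 and 2, triplicates.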

Sequence | cell viability (H460) [%] | cell viability (HeyA8) [%] | cell viability (M565) [%] | cell viability (3LL) [%]
UGCACGAACAUGUAAACCAAA | 62.8 ± 5.8 | 64.2 ± 5.7 | 56.9 ± 15 | 83.3 ± 15
UGCACGCACAUGUAAACCAAA | 50.7 ± 4 | 80.5 ± 12 | 92.1 ± 2.3 | 43.8 ± 11
UGCACGGACAUGUAAACCAAA | 31.4 ± 5.1 | 40.2 ± 2.9 | 53.6 ± 9.3 | 50.6 ± 7.9
UGCACGUACAUGUAAACCAAA | 54.6 ± 3.5 | 64.1 ± 8.7 | 40.6 ± 7.9 | 88.6 ± 5.9
UGCACUAACAUGUAAACCAAA | 68 ± 10 | 80.1 ± 7.8 | 60.6 ± 1.9 | 88.4 ± 9.7
UGCACUCACAUGUAAACCAAA | 60.7 ± 5.6 | 40.6 ± 5.6 | 22.6 ± 13 | 29.5 ± 11
UGCACUGACAUGUAAACCAAA | 57.9 ± 7.5 | 69.1 ± 3.6 | 30.7 ± 3.5 | 69.9 ± 17
UGCACUUACAUGUAAACCAAA | 46.3 ± 7.8 | 38.3 ± 3.4 | 73.8 ± 5.5 | 59.2 ± 8.5
UGCAGAAACAUGUAAACCAAA | 61.2 ± 8 | 68 ± 2.1 | 64.1 ± 3.7 | 83.3 ± 7.8
UGCAGACACAUGUAAACCAAA | 43.9 ± 2.3 | 27.1 ± 5.7 | 15.3 ± 12 | 2.77 ± 0.91
UGCAGAGACAUGUAAACCAAA | 64.6 ± 6.4 | 60.3 ± 4.7 | 45 ± 1.9 | 61.3 ± 14
UGCAGAUACAUGUAAACCAAA | 44 ± 4.9 | 30.6 ± 4.4 | 20.6 ± 5.6 | 33.4 ± 6.1
UGCAGCAACAUGUAAACCAAA | 67.8 ± 7.5 | 71.7 ± 7.1 | 47 ± 1 | 43 ± 7.8
UGCAGCCACAUGUAAACCAAA | 43 ± 3.1 | 51.7 ± 1.9 | 10 ± 0.57 | 15.4 ± 4.1
UGCAGCGACAUGUAAACCAAA | 64.1 ± 4.4 | 61.8 ± 4.2 | 34.9 ± 2 | 46 ± 4
UGCAGCUACAUGUAAACCAAA | 51.1 ± 3.5 | 47.9 ± 5.2 | 27.2 ± 1.3 | 17.5 ± 7.4
UGCAGGAACAUGUAAACCAAA | 35.6 ± 1.1 | 23.9 ± 1.8 | 46.8 ± 1.2 | 78.2 ± 5.9
UGCAGGCACAUGUAAACCAAA | 11.4 ± 2 | 2.6 ± 0.21 | 21.7 ± 0.57 | 32.5 ± 1.8
UGCAGGGACAUGUAAACCAAA | 23.9 ± 2.3 | 2.38 ± 0.25 | 33 ± 1.9 | 13.1 ± 4.4
UGCAGGUACAUGUAAACCAAA | 11.1 ± 1.1 | 4.78 ± 0.83 | 19.2 ± 2.1 | 23.8 ± 11

Sequence | cell viability (H460) [%] | cell viability (HeyA8) [%] | cell viability (M565) [%] | cell viability (3LL) [%]
UGCAGUAACAUGUAAACCAAA | 49.6 ± 3.9 | 58.1 ± 4.3 | 76.6 ± 3 | 82.2 ± 8.9
UGCAGUCACAUGUAAACCAAA | 38.5 ± 2.5 | 29.7 ± 3 | 8.13 ± 1.1 | 4.85 ± 1.2
UGCAGUGACAUGUAAACCAAA | 54.8 ± 0.68 | 25.6 ± 4.3 | 65.6 ± 5 | 66.8 ± 12
UGCAGUUACAUGUAAACCAAA | 60.6 ± 3.4 | 64.6 ± 7 | 41.3 ± 5.3 | 61.1 ± 16
UGCAUAAACAUGUAAACCAAA | 97.8 ± 2.3 | 81.2 ± 4.3 | 77.4 ± 3.9 | 86.7 ± 12
UGCAUACACAUGUAAACCAAA | 48.2 ± 1.8 | 53.8 ± 6.8 | 80 ± 4.3 | 86.9 ± 6.6
UGCAUAGACAUGUAAACCAAA | 60.3 ± 7.8 | 77.1 ± 3.9 | 63.3 ± 2 | 84.8 ± 7.5
UGCAUAUACAUGUAAACCAAA | 71.5 ± 22 | 67 ± 5.5 | 40.9 ± 4 | 83.6 ± 11
UGCAUCAACAUGUAAACCAAA | 75.9 ± 7.3 | 60.5 ± 6.2 | 65.4 ± 1.9 | 81.9 ± 14
UGCAUCCACAUGUAAACCAAA | 54.8 ± 3.8 | 47.5 ± 5.6 | 25.8 ± 1.5 | 27.7 ± 0.34
UGCAUCGACAUGUAAACCAAA | 63 ± 7.3 | 62.9 ± 4 | 81.7 ± 6.8 | 91.9 ± 13
UGCAUCUACAUGUAAACCAAA | 77.6 ± 16 | 42.7 ± 1.2 | 24.3 ± 3.5 | 57.4 ± 16
UGCAUGAACAUGUAAACCAAA | 64.5 ± 9.8 | 79.7 ± 11 | 62.6 ± 5.4 | 85.8 ± 12
UGCAUGCACAUGUAAACCAAA | 33.4 ± 0.56 | 27 ± 6.8 | 27 ± 7.6 | 17.3 ± 3.8
UGCAUGGACAUGUAAACCAAA | 53.8 ± 5.5 | 40.4 ± 4.9 | 26.9 ± 2.6 | 57.9 ± 16
UGCAUGUACAUGUAAACCAAA | 63.9 ± 7.4 | 58.6 ± 2.1 | 20.6 ± 8.3 | 69 ± 13
UGCAUUAACAUGUAAACCAAA | 76.9 ± 18 | 80.2 ± 12 | 75.6 ± 4.1 | 90.4 ± 9.2
UGCAUUCACAUGUAAACCAAA | 63.9 ± 4.1 | 59.8 ± 13 | 83.4 ± 11 | 89.4 ± 16
UGCAUUGACAUGUAAACCAAA | 59.3 ± 2.4 | 66.3 ± 25 | 61.8 ± 8.4 | 90 ± 15
UGCAUUUACAUGUAAACCAAA | 55.2 ± 2.3 | 44 ± 2.4 | 51.2 ± 9.2 | 67.3 ± 6

Sequence | cell viability (H460) [%] | cell viability (HeyA8) [%] | cell viability (M565) [%] | cell viability (3LL) [%]
UGCCAAAACAUGUAAACCAAA | 68.1 ± 10 | 90.4 ± 5.9 | 55.4 ± 9.1 | 93.3 ± 8.4
UGCCAACACAUGUAAACCAAA | 58 ± 5.5 | 60.4 ± 15 | 21.1 ± 6.7 | 52 ± 10
UGCCAAGACAUGUAAACCAAA | 46.3 ± 5.7 | 74.5 ± 4.3 | 29 ± 7.3 | 75.2 ± 8.5
UGCCAAUACAUGUAAACCAAA | 58 ± 3.1 | 81.8 ± 8.2 | 28.3 ± 10 | 83.9 ± 11
UGCCACAACAUGUAAACCAAA | 36 ± 9.7 | 47.9 ± 3.6 | 50.3 ± 8.3 | 75.9 ± 12
UGCCACCACAUGUAAACCAAA | 39.8 ± 4.4 | 37.1 ± 3 | 4.97 ± 2.3 | 38.8 ± 5.8
UGCCACGACAUGUAAACCAAA | 45.2 ± 5.2 | 64.7 ± 5.5 | 56 ± 6.4 | 82.4 ± 15
UGCCACUACAUGUAAACCAAA | 32.7 ± 5.9 | 46.1 ± 3.3 | 15.5 ± 10 | 47.5 ± 3.6
UGCCAGAACAUGUAAACCAAA | 63.4 ± 4.7 | 71.1 ± 3.6 | 52 ± 7.8 | 85.1 ± 10
UGCCAGCACAUGUAAACCAAA | 35.6 ± 2.9 | 27.7 ± 4.7 | 19.1 ± 4.2 | 5.5 ± 2.7
UGCCAGGACAUGUAAACCAAA | 20.4 ± 2.2 | 33.4 ± 2.7 | 26.9 ± 4 | 50 ± 4.6
UGCCAGUACAUGUAAACCAAA | 63.2 ± 4.7 | 32.9 ± 3 | 19.7 ± 3.8 | 14.4 ± 3.3
UGCCAUAACAUGUAAACCAAA | 60.7 ± 8.1 | 85 ± 6.3 | 43.4 ± 6.1 | 83.9 ± 9.8
UGCCAUCACAUGUAAACCAAA | 14.8 ± 1.5 | 11 ± 0.9 | 6.79 ± 8.8 | 25.2 ± 7.6
UGCCAUGACAUGUAAACCAAA | 52.3 ± 5.3 | 67.6 ± 7 | 39.6 ± 6.3 | 93.2 ± 13
UGCCAUUACAUGUAAACCAAA | 56 ± 5.2 | 56.08 ± 0.52 | 21.3 ± 2.7 | 84.9 ± 10
UGCCCAAACAUGUAAACCAAA | 101 ± 3.1 | 57.2 ± 5.6 | 57 ± 10 | 72 ± 14
UGCCCACACAUGUAAACCAAA | 52.7 ± 5.3 | 40.8 ± 2 | 27 ± 3.6 | 43.7 ± 7
UGCCCAGACAUGUAAACCAAA | 62.6 ± 4.6 | 55.9 ± 3.7 | 31.2 ± 3.5 | 38.5 ± 3.3
UGCCCAUACAUGUAAACCAAA | 71.3 ± 8.4 | 48.2 ± 4.5 | 28 ± 11 | 52.6 ± 5.8
